# Among all 140,000 compounds or so, about 240 (0.17%) were called active. Inconclusive means that the source gave no clear call. Such entries were picked first, then a sample of the others. Calls follow the shape of the dose curve; as a rule, active = well fitted inhibition curve with a large enough effect; inconclusive = small, poorly fitted or top-dose-only effect; inactive = no such curve, though single readings can be large or run the other way. Potencies beside an inconclusive call are fits to weak or partial responses and may not hold up.
# Assay: Primary qHTS assay for inhibitors of alpha-synuclein gene (SNCA) expression; also: nearly all actives have a fitted effect of over 45% in size;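 as to activity change, negative = inhibition: plate controls were DMSO cells for no effect and cell-free wells for full effect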
# Settings: HEK-293 SNCA-luciferase knock-in, luminescence, 24 h; activity change, negative = inhibition: at 57.2 µM (top of the series) unless noted
# Potency is read from the fitted curve at half-maximal effect; tags tell the direction and shape of the fitted curve.
Structure (SMILES),Potency,"activity change, negative = inhibition"
Cc1nn(-c2ccccc2[N+](=O)[O-])c(C)c1[C@@H]1C=C[C@@H](NS(=O)(=O)c2ccccc2)C1,"inconclusive: 20 µM [inhibitor, partial curve, poor fit]",–
O=C(c1cc2n(n1)CC(c1ccc3c(c1)OCO3)OC2)N1CCN(c2ccccc2)CC1 (stereo not given),"inconclusive: 1.78 µM [inhibitor, partial curve, poor fit]",–
CC1(C)[C@H]2CC[C@@H](CNC(=O)c3cccc(Cl)c3)[C@@H]1C2,–,inactive: -7.87% [at 87.6 µM]
CCCc1oc2ccc(NS(=O)(=O)c3ccc(OC)cc3)cc2c1C(=O)OCC,"inconclusive: 44.7 µM [inhibitor, partial curve, poor fit]",–
CN[C@@H]1C[C@H]2O[C@@](C)([C@H]1OC)n1c3ccccc3c3c4c(c5c6ccccc6n2c5c31)C(=O)N[C@H]4O,active: 4.29 µM,–
Cc1ccc(C(CC(=O)Nc2ccc(C)cc2C)N2Cc3ccccc3C2=O)cc1 (stereo not given),"inconclusive: 31.6 µM [inhibitor, single point]",–
COc1ccc(NC(=O)N2CCc3c(C(=O)NCCN4CCCCCC4)cccc32)cc1,"inconclusive: 10 µM [inhibitor, partial curve, poor fit]",–
Cc1cc(C(=O)N2CCCN(S(=O)(=O)c3ccccc3)CCC(=O)NCC2)nn1C,–,inactive: -13.2%
Cn1cnc2cc(C(=O)N3CCNCC(C(=O)O)C3)ccc21 (stereo not given),–,inactive: -10.8%
CCOC(=O)c1cccc(NC(=O)C2CCN(c3nnc(C)c4c(C)n(-c5ccccc5)nc34)CC2)c1,"inconclusive: 7.08 µM [inhibitor, single point]",–
Cc1noc(C)c1S(=O)(=O)N1CCC(OCc2noc(C3CCCO3)n2)CC1 (stereo not given),–,inactive: -3.3%
COc1ccc(NCc2cccn2-c2nnc(N3CCOCC3)s2)c(OC)c1,"inconclusive: 39.8 µM [inhibitor, single point]",–
Cc1nn(C)c(C)c1S(=O)(=O)N1C[C@@H](NS(C)(=O)=O)[C@H](C(C)C)C1,"inconclusive: 1.78 µM [inhibitor, full curve]",–
O=C1[C@@H]2C[C@@H](CN2Cc2ccc3c(c2)OCO3)Oc2ccccc2N1CC1CC1,"inconclusive: 35.5 µM [inhibitor, single point]",–
CN(c1ccccc1)c1cc(=O)c2ccnc(-c3cccnc3)c2o1,"inconclusive: 28.2 µM [inhibitor, partial curve, poor fit]",–
CCc1nc(-c2ccc(OC3CCN(C(=O)c4sc(C)nc4C)C3)cc2)no1 (stereo not given),–,inactive: 67.6%
Cc1sc2ccn(CC(C)C)c(=O)c2c1C(=O)N1CCCCC1,–,inactive: -20%
COc1cc2c(cc1OC)C(COc1ccc(F)cc1)N(C(=O)c1cccc(F)c1)CC2 (stereo not given),"inconclusive: 12.6 µM [inhibitor, partial curve, poor fit]",–
CCOc1ccc(CN2CCc3nc(N4CCN(c5ccccn5)CC4)ncc3C2)cc1OC,"inconclusive: 4.47 µM [inhibitor, single point]",–
CC(=O)N1CCC2(CC1)CN(Cc1ccncc1)Cc1ccccc1O2,"inconclusive: 12.6 µM [inhibitor, partial curve, poor fit]",–
O=C(N[C@@H]1CCOC[C@H]1OCCO)c1ccc(CN2CCCCCC2)cc1,"inconclusive: 31.6 µM [inhibitor, single point]",–
Cc1ccc(C(=O)c2cn(Cc3ccccc3C)c3nc(C)ccc3c2=O)cc1,"inconclusive: 28.2 µM [inhibitor, single point]",–

Structure (SMILES),Potency,"activity change, negative = inhibition"
COc1ccc(-c2noc([C@@H]3CCCN3C(=O)c3ccccc3Cl)n2)cc1,–,inactive: 0.253%
COc1ccc(CNC(=O)Cc2csc3nc(-c4ccc(F)cc4)cn23)cc1,"inconclusive: 12.6 µM [inhibitor, single point]",–
CC(C)c1noc(-c2cn(C3CCN(C(=O)c4cccc(Cl)c4)C3)nn2)n1 (stereo not given),"inconclusive: 39.8 µM [inhibitor, single point]",–
O=C(c1cc(F)ccc1Br)N1CCC(n2c(=O)[nH]c3ccccc32)CC1,"inconclusive: 35.5 µM [inhibitor, single point]",–
COCC(=O)NC1CCC12CCN(Cc1ccc(F)c(F)c1)CC2 (stereo not given),"inconclusive: 3.16 µM [inhibitor, partial curve, poor fit]",–
Cc1ccc(NC(=O)N2CCc3c(C(=O)NCCCN4CCCC4=O)cccc32)cc1,active: 2 µM,–
CCCOc1nccnc1NC1CCN(C(=O)NCC)CC1,"inconclusive: 0.708 µM [inhibitor, partial curve, poor fit]",–
Cc1noc(C2CC3(CCN(C(=O)COc4ccccc4)CC3)CN2C)n1 (stereo not given),–,inactive: 15%
Cc1cccc(CN2CCc3nc(C(=O)NCc4ccccc4)oc3CC2)c1,–,inactive: -10.4% [at 87.6 µM]
Cc1noc(C)c1-c1cc2c(c(-c3cccc(OC(C)C)c3)c1)C(=O)N(C)C2,–,inactive: 84% [at 87.6 µM]
COc1ccc2c(c1)-c1nc(NC(=O)c3cc(OC)c(OC)c(OC)c3)sc1CC2,"inconclusive: 22.4 µM [inhibitor, single point]",–
COc1ccc(-c2nc(C3CC3)nc3c2CCN(C(=O)c2ccccc2)CC3)cc1,inactive,–
Cc1cc(C)cc(Nc2nc3cc(Cl)c(Cl)cc3nc2-n2nc(C)cc2C)c1,–,inactive: 11.8%
Cc1ccc(-n2ncc(C(=O)NCCCN3CCc4ccccc4C3)c2C2CCN(C(=O)OC(C)(C)C)CC2)c(C)c1,"inconclusive: 22.4 µM [inhibitor, partial curve, poor fit]",–
Cc1cc(-c2ccnc(-c3nnc(C)n3-c3ccccc3)c2)ccn1,"inconclusive: 8.91 µM [inhibitor, partial curve, poor fit]",–
O=S(=O)(NCCc1noc(-c2ccncc2)n1)c1ccc(F)cc1,–,inactive: 1.04%
O=C1NCCCCCCN(Cc2ccncc2)[C@@H]2CN(C(=O)Nc3ccccc3)CC[C@H]12,"inconclusive: 28.2 µM [inhibitor, single point]",–
Cc1cccc(CC(=O)N2CCc3c(nc4cc[nH]n4c3=O)C2)c1,–,inactive: -10.2%
Cc1cc(C)cc(C(=O)N2CC(=O)Nc3ccc(Br)cc3C2c2ccccc2)c1 (stereo not given),"inconclusive: 25.1 µM [inhibitor, single point]",–
Cc1nc2ccccc2n1Cc1cn([C@@H]2CN[C@H](C(=O)O)C2)nn1,"inconclusive: 22.4 µM [inhibitor, single point]",–
CCOCCn1c(=O)[nH]c2cc(C(=O)NCc3noc(CC)n3)ccc21,–,inactive: -16.3%
Fc1ccc(CN2CCC3(CC(Cc4ccccc4)=NO3)C2)cc1 (stereo not given),–,inactive: -5.74% [at 87.6 µM]

Structure (SMILES),Potency,"activity change, negative = inhibition"
Cc1cc(=O)n(CC(=O)Nc2ccc3c(c2)OCO3)c(-c2ccccc2)n1,"inconclusive: 39.8 µM [inhibitor, single point]",–
c1cncc(-c2cnc3n[nH]c(-c4ccc5c(c4)OCO5)c3n2)c1,"inconclusive: 2.82 µM [inhibitor, full curve]",–
CN1CCN(Cc2nnc(C(=O)N3CCC[C@@H]3C(c3ccccc3)c3ccccc3)n2-c2ccccc2)CC1,"inconclusive: 2 µM [inhibitor, partial curve, poor fit]",–
COc1ccccc1CCC(=O)N1CCC2(CC1)NC(=O)N(c1ccccc1)N2,"inconclusive: 8.91 µM [inhibitor, full curve, poor fit]",–
Cc1nc2scc(CC(=O)N3CCCC3)n2c(=O)c1-c1cc(C)n(-c2ccc(F)cc2)n1,–,inactive: -2.07%
O=C(NCc1nnc2c(-c3nc(C4CC4)no3)cccn12)C1CC1,–,inactive: 0.428%
Cc1ccc2c(=O)c(C(=O)c3ccccc3)cn(CC(=O)Nc3ccc4c(c3)OCCO4)c2n1,"inconclusive: 39.8 µM [inhibitor, single point]",–
CCc1nc(C)c(C(=O)N2CCC3(CCCN(Cc4cccc(C)c4)C3)C2)o1 (stereo not given),"inconclusive: 20 µM [inhibitor, single point]",–
CCOc1ccccc1NC(=O)Cn1c(=O)n(CCC(C)C)c(=O)c2cccnc21,"inconclusive: 39.8 µM [inhibitor, single point]",–
CNC(=O)N1CCC(C2CCN(C(=O)c3ccc(Br)cc3)C2)CC1 (stereo not given),–,inactive: 39.2%
COc1ccc(N2C(=O)CSC23C(=O)N(CC(=O)NC2CCCCC2)c2ccccc23)cc1 (stereo not given),"inconclusive: 6.31 µM [inhibitor, full curve]",–
COc1ccc(Cn2c(C(=O)O)c(CNCc3cccc(OC)c3)c3ccc(C)cc32)cc1,"inconclusive: 25.1 µM [inhibitor, single point]",–
Cc1noc(C)c1C(=O)N(C)C1CCc2nnc(C)n2CC1 (stereo not given),"inconclusive: 3.16 µM [inhibitor, single point]",–
COCc1ncc(C)n1C1CCCN(C(=O)CCn2nc(C)cc2C)C1 (stereo not given),–,inactive: -20.8%
CCN1c2cc(C(=O)Nc3ccc(C)c(F)c3)ccc2C(=O)N2CCCC21 (stereo not given),"inconclusive: 8.91 µM [inhibitor, single point]",–
COc1cccc(-c2cc3c(=O)n(CCNC(=O)c4cc(C)cc(C)c4)ccn3n2)c1,–,inactive: 41%
CS(=O)(=O)N1C[C@H]2CCN(C(=O)c3ccc4[nH]ccc4c3)C[C@H]21,–,inactive: 13.9%
COc1ccc(NC(=O)Cn2c(=O)n(CCCC(=O)NCc3ccccc3OC)c(=O)c3ccccc32)cc1Cl,"inconclusive: 7.08 µM [inhibitor, single point]",–
N#Cc1ccnc(Nc2cc(C3CCN(C4COC4)CC3)cc(N3CCC(F)(F)C3)n2)c1,"inconclusive: 5.39 µM [inhibitor, full curve, poor fit]",–
Cn1c(CN2CCCCC2)nc2cc(NC(=O)c3cccc(Br)c3)ccc21,"inconclusive: 39.8 µM [inhibitor, single point]",–
CCc1nnc(NC(=O)c2nc(S(=O)(=O)Cc3cccc(C)c3)ncc2Cl)s1,"inconclusive: 39.8 µM [inhibitor, single point]",–

# Source: PubChem BioAssay AID1671194 (National Center for Advancing Translational Sciences (NCATS), 2021)
